Where “and” joins values, the source holds several entries; their conditions need not be identical. Equal values may be shown once.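 Protocol summary: plate cells (96-well), add compound at 5 concentrations, incubate 48 h, interpolate endpoints linearly. Here, GI50 denotes the concentration required for 50% inhibition of growth. TGI is the concentration that stops growth completely.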

The test system of this test is NCI-H322M lung. Kind of test: DTP human tumour cell line panel, 48 h.

As to `Nc1ncn([C@H]2CC(O)[C@@H](CO)S2)c(=O)n1` (stereo not given in full), the GI50 was 26.4 µM and the TGI was greater than 100 µM.
`O=c1c(-c2nc3ccccc3c3ccccc3c2=O)nc2ccccc2c2ccccc12` gave a TGI greater than 100 µM.
Still for that read-out and setting: the same measure for `CC(C)=CCC[C@@H](C)C1=C(O)C(N[C@H](C)c2ccccc2)=C(C)C(=O)C1=O`: 27.3 µM; for `CCOC(=O)C(O)(CC1=NC(C(=O)OC)(C(=O)OC)C(c2cccc(C=O)c2)O1)C(=O)OCC` (stereo not given): greater than 100 µM.
Take `C/C=C/C=C/c1cc2cc3c(c(O)c2c(=O)[nH]1)C1(CC3)C(O)=c2c(=O)c3c(=O)cc(OC)c(=O)c=3c(=O)c2=C1O` (stereo not given): the GI50 is 0.55 µM and 4.74 µM; the TGI is 15.7 µM and 22.2 µM.
On to `CSc1cc(Cl)c(C)cc1S(=O)(=O)NC(=O)NNc1ccc(C)cc1`, for which the TGI is greater than 100 µM.
In turn, `O=P(CN1CCOCC1)(c1ccccc1)c1ccccc1` registered a TGI greater than 100 µM.
With `CC(=O)c1csc2c1C(=O)c1ccccc1C2=O`, the TGI is 3.43 µM.
On to `Cn1c(=O)c(-c2ccccc2Cl)cc2cnc(NC3CCOCC3)nc21`, for which the GI50 is 12 µM and the TGI is greater than 25 µM.
The matching figures for `COC(=O)c1c(C)nc(C)c2c1C(=O)C(Br)=C(NCc1ccccc1)C2=O`: 3.45 µM and 10.9 µM.
Take `CC(C)(C)N/N=C(/Cc1nc2c3c(ccc2[nH]c1=O)C(=O)c1ccccc1C3=O)C(=O)NC1=C(Cl)C(=O)c2ccccc2C1=O`: the TGI was greater than 100 µM.
For `CCCC1C[C@H]2CCCCN2[C@H]2CCCN12` (stereo not given in full), the TGI was greater than 100 µM.
`CC(C)(O)C1COC2=C1C(=O)c1ccccc1C2=O` (stereo not given) returned a TGI greater than 100 µM.
The same measure, in the same setting: for `C[N+](C)(CCNc1ccc(NCC[N+](C)(C)Cc2ccc([N+](=O)[O-])cc2)c2c1C(=O)c1c(O)ccc(O)c1C2=O)Cc1ccc([N+](=O)[O-])cc1` the value was greater than 50 µM; for `Nc1nc(Cl)c(CO)c(NCC2(CO)CCC2)n1`, greater than 100 µM; for `Cc1c(Cl)ccc2c1NC(=O)C2(O)CC(=O)c1ccc(Cl)cc1` (stereo not given), greater than 100 µM.
In the case of `CC(=O)c1cc2c(N)c(C(=O)Nc3cccc4ccccc34)sc2nc1C`, the GI50 is 3.72 µM and the TGI is greater than 50 µM.
Consider `CN1CCCCC1CCN1c2ccccc2Sc2ccc(Br)cc21` (stereo not given), for which the GI50 is 3.05 µM and the TGI was found to be 11.2 µM.
Compound `O=C(C[N+]12CN3CN(CN(C3)C1)C2)c1ccc(-c2ccccc2)cc1` gave a TGI of 54.3 µM.
With `O=C1C(Cl)=C(Nc2ccc(S(=O)(=O)c3ccc(NC4=C(Cl)C(=O)c5ccccc5C4=O)cc3)cc2)C(=O)c2ccccc21`, the GI50 is 4.27 µM and the TGI turned out to be 14.8 µM.
The like results for `CC(C)=C[C@@H]1C[C@H](C)[C@H]2CC[C@H](C)c3c(O)c(OC4OC(C)C(O)C(O)C4O)c(C)c1c32` (stereo not given in full) were, in that order, 13.6 µM and 26.7 µM.
With `O=C(/C=C/c1ccccc1)c1ccc(Cl)cc1Cl`, the TGI was greater than 100 µM.
Take `OCCCN=C1CCCCC1`: the TGI was greater than 100 µM.
Consider `C=CCOCC1C2CCC3(OCCO3)C21` (stereo not given), for which the TGI was greater than 100 µM.
`NCCCN(CCCCN(CCCN)CCCc1ccccc1)CCCc1ccccc1` came in with a TGI of 12.7 µM. In other words, the double-digit micromolar range.
For `Cc1c(C#N)c2nnn(-c3cccc(Cl)c3)c(=O)n2c1-c1ccccc1`, the TGI was greater than 100 µM.
The compound `Cc1ccc(C2=CC(=O)/C(=C\C(=O)c3ccc(Br)cc3)O2)c(C)c1` registered a TGI greater than 68.2 µM.
The same measure, in the same setting: for `OCCc1ccsc1-c1sc(-c2cc(CCO)c(-c3sc(-c4cc(CCO)c(-c5sccc5CCO)s4)cc3CCO)s2)cc1CCO` the value was 2.81 µM.
Same read-out and setting: for `CC(=O)CCC1(c2ccccc2)OC(=O)C(C#N)=C1c1ccccc1` (stereo not given) the value was greater than 100 µM.
Still for that read-out and setting: the same measure for `COc1cc2c(oc(=O)c3c4occc4cc(OC)c23)c2cccc(O)c12`: greater than 100 µM.
The compound `CCOC(=O)[C@@]12C[C@](/C=C/OC)(O[Si](C)(C)C)[C@@]13c1cc(OC)c(OC)cc1CCN3C(=O)C2=O` displayed a TGI greater than 100 µM.
Compound `O=c1cc(-c2ccccc2)oc2ccc(Cl)cc12` yielded a TGI greater than 100 µM.
Same read-out and setting: for `ClC1=NSSC1(Cl)Cl` the value was greater than 100 µM.
In the case of `CC(=O)ON(OCc1ccc2ccccc2c1)C(C)=O`, the GI50 is greater than 100 µM and the TGI is greater than 100 µM.
Regarding `COC(=O)C(=O)C(C(=O)C(=O)Nc1ccc([N+](=O)[O-])cc1)c1nc2ccccc2[nH]c1=O` (stereo not given), the TGI was greater than 100 µM.
The same measure, in the same setting: the same measure for `O=C(/C=C/c1ccc(-c2ccccc2)cc1)NCc1ccc(C(=O)NCCc2ccccc2)cc1`: greater than 100 µM.
`O=c1[nH]c2cc(Cl)ccc2nc1/C(=N\Nc1ccccc1)C(O)c1ccc2c(c1)OCO2` (stereo not given): the TGI is greater than 100 µM.
The compound `Cc1sc(/N=C/C2=C(O)CC(C)(C)CC2=O)nc1-c1ccccc1` came in with a TGI greater than 100 µM.
For the compound `CCN(CC)CCOC(COc1cc(C)cc(C)c1)COc1cc(C)cc(C)c1`, the GI50 was 2.26 µM and the TGI was 10.4 µM.
Take `Clc1ccc(C=Nc2ccc(-c3nc4ccccc4[nH]3)cc2)cc1`: the GI50 is greater than 100 µM and the TGI was greater than 100 µM.
`Nc1nc(Sc2ccc([N+](=O)[O-])c3nonc23)c2[nH]cnc2n1` returned a TGI of 21.2 µM.
Same read-out and setting: the same measure for `Clc1cc(N/N=C(\c2ccccc2)c2ccccn2)ncn1`: 2.03 µM; for `Cc1ccc(C)c2c1C1CCCCC3(OCCCO3)C21O` (stereo not given): greater than 100 µM; for `CN(C)S(=O)(=O)c1ccc2[nH]c(O)c(C3=Nc4ccccc4C3=O)c2c1`: greater than 100 µM.
Still for that read-out and setting: the same measure for `COc1cc(/C=C(\C)[N+](=O)[O-])cc(OC)c1`: 31.6 µM; for `CC1(C)CC(O)CC(C)(C)N1O`: greater than 100 µM.
Take `[Br][Pb]([c]1ccccc1)([c]1ccccc1)[c]1ccccc1`: the GI50 was 0.242 µM and the TGI is 0.718 µM.
The like results for `CC[C@H](C)[C@H](NC(=O)[C@H]1CCCCN1C)C(=O)N(C)[C@H](CCc1nc(C(=O)N[C@@H](Cc2ccccc2)C[C@H](C)C(=O)O)cs1)C(C)C` were, in that order, 0.395 µM and greater than 25 µM.
Compound `COC(=O)c1c(C(=O)OC)c(-c2ccccc2)n(-c2ccccc2)c(=O)c1-c1ccccc1` registered a TGI greater than 100 µM.
For the compound `O=C(Nc1cccc(-n2ccc3c(NC(=O)c4ccccc4)ncnc32)c1)Nc1ccc(Cl)c(C(F)(F)F)c1`, the GI50 was 6.93 µM and the TGI is 15.6 µM.
The like results for `COc1cc(C(=O)c2cnc(-c3c[nH]c4cccc(C)c34)[nH]2)cc(OC)c1OC` were, in that order, 0.0168 µM and greater than 100 µM.
The matching figures for `S=c1ssnc1-c1cc2ccccc2o1`: 25.1 µM and 60 µM.
The like results for `Cc1cc(NC(=O)NCc2ccc(N3C(N)=NC(N)=NC3(C)C)cc2)ccc1S(=O)(=O)F` were, in that order, 6.58 µM and greater than 100 µM.
In the case of `CCOC(=O)Cc1c(C(=O)OCC)[n+](=O)c2cc(Cl)c(Cl)cc2n1[O-]`, the TGI worked out at 17.4 µM.
Consider `Cc1ccc(C(=O)N/N=C(\N=Nc2ccc([N+](=O)[O-])cc2)c2ccc(N(CCC#N)CCC#N)cc2C)cc1`, for which the TGI was greater than 100 µM.
Compound `C/C(=C\C(=O)Nc1ccc2n[nH]nc2c1)Nc1ccc2n[nH]nc2c1` returned a TGI greater than 100 µM.
The same measure, in the same setting: the same measure for `CC(C)(C)OC(=O)Cn1ncn(NC(=O)Cc2ccccc2)c1=S`: greater than 10 µM.
As for `CCOc1ccc(C2=NN(CC)C(=O)C(C3C(=O)N(c4ccccc4)N=C3C)C2)cc1` (stereo not given), the TGI is greater than 100 µM.
Same read-out and setting: for `COC1C(OC(=O)c2ccc(C)[nH]2)C(O)C(Oc2ccc3c(O)c(NC(=O)c4ccc(O)c(CC=C(C)C)c4)c(=O)oc3c2Cl)OC1(C)C` (stereo not given) the value was 37.9 µM.
As for `O=CN1CCN(c2ccc3ccc(=O)[nH]c3n2)CC1`, the TGI was greater than 100 µM.
Take `CCCC(=O)Nc1cc(C(=O)N2C[C@H]3C[C@@]34C2=CC(=O)c2[nH]cc(C)c24)n(COC)c1`: the GI50 was 0.276 µM; the TGI is 2.77 µM and 10.5 µM.
In turn, `CCCCCCCCCCCC/C=C\CC[C@@H](O)[C@H](O)CC[C@H](O)[C@@H]1CC[C@@H](CCCCCCCC2=C[C@H](C)OC2=O)O1` displayed a TGI of 32 µM.
On the same count and under the same terms, for `Nc1cccc(-c2cc(=O)c3cc4c(cc3[nH]2)OCO4)c1` the value was greater than 100 µM.
On to `CCn1c(-c2nonc2N)nc2ccccc21`, for which the GI50 is greater than 25 µM and the TGI is greater than 25 µM.
`C[C@]12CC[C@H]3[C@@H](CC=C4C[C@@H](O)CC[C@@]43C)[C@@H]1C/C(=C\c1cccnc1)[C@@H]2O` returned a TGI greater than 100 µM.
With `Clc1ccc(-c2cn3c(nc4ccccc43)c(-c3ccccc3)n2)cc1`, the TGI is greater than 80.4 µM.
Take `Nc1nc(SCc2ccccc2CCl)c2[nH]cnc2n1`: the GI50 is 15 µM and the TGI was found to be 51.4 µM.
As for `FC(F)(F)c1ccccc1C1SCc2nc3ccccc3n21` (stereo not given), the TGI was greater than 100 µM.
Take `N[C@@H]1CCCN(c2c(Br)cnc3[nH]cc(NC(=O)C4CC4)c23)C1`: the GI50 was 0.324 µM and the TGI is greater than 100 µM.
For `O=c1c(I)c[nH]cc1I`, the GI50 is greater than 100 µM and the TGI is greater than 100 µM.
For the compound `CN(C)C(=O)C(F)(F)C(c1ccccc1)C1C(=O)N(C)C(=O)N(C)C1=O` (stereo not given), the TGI is greater than 100 µM.
On the same count and under the same terms, for `O=C1Cc2cc3ccccc3nc2-c2ccccc2N1` the value was 84.4 µM.
The same measure, in the same setting: the same measure for `O=C(NNC(=O)c1ccco1)c1ccco1`: greater than 100 µM; for `O=C1CCC(c2ccccc2)=NN1c1nc2ccccc2s1`: greater than 100 µM; for `COC(=O)Cc1cc(=O)n2c3ccccc3n(C)c2c1C#N`: greater than 100 µM.
Compound `CNC(=O)[C@H](Cc1ccccc1)NC(=O)N(CCC#N)CCN(C(=O)N[C@@H](Cc1ccccc1)C(=O)OC)c1ccccc1` showed a TGI greater than 100 µM.
As for `Cc1cc(NCCCCCCCNc2cc(C)nc3cc(N)ccc23)c2ccc(N)cc2n1`, the TGI was greater than 100 µM.
With `CC1(C)N=C(N)N=C(N)N1c1ccc(CCCC(=O)Nc2ccc(S(=O)(=O)F)cc2)cc1`, the GI50 is 29.9 µM and the TGI is greater than 100 µM.
The matching figures for `[CH3][Sn]([CH3])([CH3])[S]C(=S)N1CCOCC1`: 6.05 µM and greater than 100 µM.
Regarding `CN1C2C=CC(=O)C1C1C(=O)N(c3ccccc3)C(=O)C12` (stereo not given), the GI50 was 13.8 µM and the TGI is 29.3 µM.
In turn, `O=c1ccc(N=Nc2ccccc2)ccc1O` showed a TGI of 30 µM. That is a double-digit micromolar value.
Still for that read-out and setting: the same measure for `CC1NOC(=O)C1N=Nc1cccc(Cl)c1` (stereo not given): greater than 100 µM; for `COc1cccc(NC(=O)CC(=O)NN)c1`: greater than 100 µM.
As to `CCSC[C@@H]1C[C@](O)(c2ccccc2)[C@@H](c2ccccc2)O1`, the GI50 was greater than 100 µM and the TGI was greater than 100 µM.

Values taken from PubChem BioAssay (NCI).
